# The other results are listed elsewhere or left out. Values were computed here from the reads of four pooled replicates and scatter widely.
# Target: T1, Pho4 (S. cerevisiae) (UniProt P07270)
# T1 sequence: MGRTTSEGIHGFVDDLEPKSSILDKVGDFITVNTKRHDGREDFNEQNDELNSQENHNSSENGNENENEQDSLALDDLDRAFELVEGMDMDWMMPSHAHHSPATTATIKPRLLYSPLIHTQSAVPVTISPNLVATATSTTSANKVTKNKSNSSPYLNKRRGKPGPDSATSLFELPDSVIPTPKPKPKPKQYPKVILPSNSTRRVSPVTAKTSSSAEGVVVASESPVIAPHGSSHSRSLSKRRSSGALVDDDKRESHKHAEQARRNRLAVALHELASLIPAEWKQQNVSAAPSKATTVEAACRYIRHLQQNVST
# Assay: relative binding free energy (BET-seq); higher = weaker binding
# Conditions: reference: library average
row,Sequence,relative binding free energy
1,GGTTCCACGTGTGTGC,0.08 kcal/mol
2,TATGACACGTGTACTT,0.09 kcal/mol
3,GGAGGCACGTGGGTAG,-0.25 kcal/mol
4,GAAGTCACGTGGTTTA,-0.02 kcal/mol
5,AATTTCACGTGTTATT,0.32 kcal/mol
6,TGCGTCACGTGGATTT,0.22 kcal/mol
7,GATCACACGTGATGTT,0.29 kcal/mol
8,GAAGGCACGTGTAATA,0.21 kcal/mol
9,AGGCGCACGTGGAGGT,-0.06 kcal/mol
10,CTGGGCACGTGGGGAC,-0.19 kcal/mol
11,TTAAACACGTGAAGTG,0.13 kcal/mol
12,CTTTGCACGTGTTAGG,0.02 kcal/mol
13,GGATGCACGTGGAGGA,-0.01 kcal/mol
14,GGGGTCACGTGACGAT,0.13 kcal/mol
15,GCTCACACGTGGTGTG,0.02 kcal/mol
16,GCAGTCACGTGATTTG,0.26 kcal/mol
17,GGTGGCACGTGTTGCA,-0.01 kcal/mol
18,TAGTGCACGTGAATTG,0.19 kcal/mol
19,CGTTGCACGTGAGAAT,0.31 kcal/mol
20,CCGATCACGTGTTTGT,0.21 kcal/mol
21,TATTGCACGTGGAAGT,0.08 kcal/mol
22,CTGGGCACGTGTCTGT,-0.13 kcal/mol
23,TGTGACACGTGTTCAG,0.12 kcal/mol
24,TGAGGCACGTGTAAAT,0.05 kcal/mol
25,AAGGTCACGTGAGGAA,0.3 kcal/mol
26,AGGGTCACGTGTTTCT,0.09 kcal/mol

row,Sequence,relative binding free energy
1,ATGTGCACGTGTACTG,-0.08 kcal/mol
2,GTTGACACGTGTTGGT,0.02 kcal/mol
3,GTGTCCACGTGATAAG,0.32 kcal/mol
4,TCTATCACGTGTATTT,0.14 kcal/mol
5,TGTTACACGTGATTAG,0.11 kcal/mol
6,GATAGCACGTGGTCTG,-0.18 kcal/mol
7,CCAGGCACGTGTGGGT,0.01 kcal/mol
8,GTTGGCACGTGCTAAG,-0.07 kcal/mol
9,CTTGGCACGTGGTAGC,-0.16 kcal/mol
10,GATATCACGTGAGGAG,0.39 kcal/mol
11,GTGGTCACGTGGAATG,0.2 kcal/mol
12,GACAGCACGTGTGGTT,0.02 kcal/mol
13,ATTGGCACGTGTTGTA,-0.12 kcal/mol
14,TTCTGCACGTGTTATG,-0.11 kcal/mol
15,AGCAGCACGTGAAGGT,0.19 kcal/mol
16,GTATTCACGTGGGGTA,0.2 kcal/mol
17,AGTTCCACGTGGGTTT,-0.03 kcal/mol
18,GGATGCACGTGTGAGA,0.09 kcal/mol
19,TTGGGCACGTGGTGAT,-0.11 kcal/mol
20,TGTGACACGTGTTGTA,0.04 kcal/mol
21,GTGCTCACGTGGTTTC,0.34 kcal/mol
22,TTACGCACGTGCTGGT,-0.1 kcal/mol
23,TTAGTCACGTGGTTAA,0.08 kcal/mol
24,GAGGACACGTGCAGGG,0.14 kcal/mol
25,TTAGTCACGTGTCAGG,0.09 kcal/mol
26,TGGTACACGTGGTAAT,0.02 kcal/mol

row,Sequence,relative binding free energy
1,TGTTACACGTGCTGTG,0.05 kcal/mol
2,ATAGGCACGTGAATCG,0.15 kcal/mol
3,TGTGTCACGTGCTTGT,0.03 kcal/mol
4,TCGGGCACGTGTTGGT,-0.05 kcal/mol
5,TAAGGCACGTGAGTAA,0.14 kcal/mol
6,GGAATCACGTGTGTCT,0.14 kcal/mol
7,GGTCGCACGTGTGGCA,0.07 kcal/mol
8,AGCTACACGTGGGTTA,0.04 kcal/mol
9,GGGTGCACGTGGCTGA,-0.13 kcal/mol
10,GGCTACACGTGTAGGA,0.13 kcal/mol
11,GGGTTCACGTGGCCGG,0.28 kcal/mol
12,TGGTTCACGTGGCTCA,0.26 kcal/mol
13,GTATGCACGTGTTAGC,0.1 kcal/mol
14,GGGCTCACGTGATGCG,0.33 kcal/mol
15,TAGAGCACGTGTAGCG,-0.09 kcal/mol
16,TGGCGCACGTGGATTG,-0.06 kcal/mol
17,TCAATCACGTGAGTTG,0.27 kcal/mol
18,TGGTACACGTGTATCT,-0.02 kcal/mol
19,GAAAACACGTGGGGAT,0.01 kcal/mol
20,AGTTTCACGTGAGTGG,0.41 kcal/mol
21,ATAGACACGTGTGGGG,0 kcal/mol
22,ATTTACACGTGTGCGT,0.07 kcal/mol
23,AACGTCACGTGGATGT,-0.03 kcal/mol
24,GGCGACACGTGTTAGG,0.07 kcal/mol
25,AGGGGCACGTGGACGA,-0.15 kcal/mol
26,TTTGGCACGTGTTGAG,-0.06 kcal/mol

row,Sequence,relative binding free energy
1,CACGGCACGTGTGGGG,-0.05 kcal/mol
2,ATGGACACGTGGATGA,0.09 kcal/mol
3,TGGAGCACGTGCGGTT,-0.17 kcal/mol
4,TGCGGCACGTGAAAGT,0.24 kcal/mol
5,GTGAACACGTGGGGAC,-0.07 kcal/mol
6,ACGTTCACGTGCGGGG,0.08 kcal/mol
7,ACTTTCACGTGAGTGT,0.21 kcal/mol
8,ATTTCCACGTGTGATG,0.04 kcal/mol
9,GGTGCCACGTGGTGGT,-0.14 kcal/mol
10,ATTAGCACGTGGTTCT,-0.13 kcal/mol
11,GGTTGCACGTGTGTGG,0.15 kcal/mol
12,AGTTTCACGTGTGAAT,0.32 kcal/mol
13,GTATCCACGTGGTGTT,-0.07 kcal/mol
14,GTGTGCACGTGGGGTC,-0.13 kcal/mol
15,GAATACACGTGTAGTT,0.14 kcal/mol
16,GGTTTCACGTGTAGGG,0.2 kcal/mol
17,TCTCTCACGTGGTTTA,0.3 kcal/mol
18,ATCTGCACGTGAGGGG,0.24 kcal/mol
19,TGAGTCACGTGAGGAA,0.1 kcal/mol
20,GTCTGCACGTGTTGCG,0.12 kcal/mol
21,GGATACACGTGTCGTG,0.07 kcal/mol
22,ACGGTCACGTGGTGTT,0.14 kcal/mol
23,AATTTCACGTGAGGGC,0.29 kcal/mol
24,TAAGGCACGTGTCATG,-0.03 kcal/mol
25,ATAGACACGTGCTGTT,-0.08 kcal/mol
26,ACGGTCACGTGGCTGG,-0.01 kcal/mol

row,Sequence,relative binding free energy
1,AAGCTCACGTGTGGTT,0.17 kcal/mol
2,TTATACACGTGTAGAT,0.15 kcal/mol
3,AGGCGCACGTGGACGG,-0.15 kcal/mol
4,TAGGACACGTGGTAAT,-0.07 kcal/mol
5,AAACTCACGTGGGTTT,0.08 kcal/mol
6,GAACGCACGTGGGTTT,0.01 kcal/mol
7,AGTGGCACGTGTGCGC,-0.1 kcal/mol
8,ATGCTCACGTGATTTG,0.32 kcal/mol
9,TTGGTCACGTGTAGTG,0.25 kcal/mol
10,CTGGTCACGTGCTTAT,0.11 kcal/mol
11,GGAGCCACGTGGGAGT,-0.07 kcal/mol
12,AGAGGCACGTGGTGAA,-0.2 kcal/mol
13,TTTTTCACGTGTAATG,0.25 kcal/mol
14,TGTTGCACGTGCGCAT,-0.24 kcal/mol
15,AGTGTCACGTGAATGT,0.23 kcal/mol
16,CGGGGCACGTGTTTGA,-0.15 kcal/mol
17,GTGTTCACGTGGTCAT,0.18 kcal/mol
18,TTAAGCACGTGCGGCT,-0.14 kcal/mol
19,TGTGACACGTGTACGT,-0.01 kcal/mol
20,TTAAACACGTGGTTTT,-0.19 kcal/mol
21,CATGGCACGTGGGAAG,-0.17 kcal/mol
22,ATCTTCACGTGGTAGT,0.21 kcal/mol
23,TGTTTCACGTGCTTTT,0.29 kcal/mol
24,TCCGTCACGTGTATGT,0.11 kcal/mol
25,GCTTTCACGTGGCGGA,0.37 kcal/mol
26,AGTTGCACGTGCGCGG,-0.1 kcal/mol

row,Sequence,relative binding free energy
1,ATTCGCACGTGAGTTT,0.13 kcal/mol
2,CTATTCACGTGAGTTG,0.56 kcal/mol
3,AGTGGCACGTGGCTTC,-0.15 kcal/mol
4,GGTGACACGTGGGGAA,0.04 kcal/mol
5,CCCGTCACGTGGGGGG,-0.14 kcal/mol
6,TGTTTCACGTGGCATT,0.17 kcal/mol
7,TCGGTCACGTGTGAGG,0.09 kcal/mol
8,GGTATCACGTGGATAT,0.27 kcal/mol
9,TCGTGCACGTGATATT,0.03 kcal/mol
10,TTATACACGTGTAGGC,0.19 kcal/mol
11,GTTTACACGTGTCTGT,0.13 kcal/mol
12,AAATTCACGTGGCGGG,0.27 kcal/mol
13,TTTGGCACGTGAGTGA,0.06 kcal/mol
14,GGTAGCACGTGCAGGC,-0.07 kcal/mol
15,GAGAGCACGTGGGTCG,-0.21 kcal/mol
16,TTAACCACGTGTATGT,-0.1 kcal/mol
17,ATGGGCACGTGATCGC,0 kcal/mol
18,AGGGTCACGTGGACGT,0.16 kcal/mol
19,ATGATCACGTGATATG,0.28 kcal/mol
20,GAATGCACGTGCGGGT,0.09 kcal/mol
21,TTTCCCACGTGTGTGG,-0.11 kcal/mol
22,GTTTCCACGTGAGAGG,0.25 kcal/mol
23,GTTGTCACGTGGAAGG,0.17 kcal/mol
24,AAGTGCACGTGTTTTG,0.01 kcal/mol
25,GGAGGCACGTGGAGGT,0.03 kcal/mol
26,TTACACACGTGTGGTG,0 kcal/mol

row,Sequence,relative binding free energy
1,TCGATCACGTGGTGCT,0.06 kcal/mol
2,GATAGCACGTGGGGAT,-0.06 kcal/mol
3,AAGGTCACGTGGGGGG,-0.08 kcal/mol
4,AGAAGCACGTGGGCTG,-0.19 kcal/mol
5,TGTGCCACGTGGGGAA,-0.29 kcal/mol
6,GGTTACACGTGGTGCT,0.08 kcal/mol
7,ATGTTCACGTGTAATA,0.24 kcal/mol
8,GGCCACACGTGGTGGT,-0.01 kcal/mol
9,CAATTCACGTGATGGG,0.36 kcal/mol
10,ATTATCACGTGGTAAT,0.13 kcal/mol
11,GTTGTCACGTGCTTTA,0.13 kcal/mol
12,AGGACCACGTGGTGTG,-0.16 kcal/mol
13,AGTGACACGTGGTTCT,-0.04 kcal/mol
14,TCGTGCACGTGTTGTA,-0.13 kcal/mol
15,GTGATCACGTGTGCTT,0.07 kcal/mol
16,GTGATCACGTGAGGCA,0.24 kcal/mol
17,CGTGGCACGTGAGCTG,0.14 kcal/mol
18,TAAATCACGTGTGTTG,0.2 kcal/mol
19,GTGGCCACGTGAGGCG,0.12 kcal/mol
20,TTAGGCACGTGCCTTT,-0.05 kcal/mol
21,GCTTTCACGTGTTGCG,0.4 kcal/mol
22,ATGTACACGTGCTGAG,0.07 kcal/mol
23,TGAATCACGTGGTGTT,0.12 kcal/mol
24,GGGGTCACGTGCGTGG,0.1 kcal/mol
25,TGTAGCACGTGGAGCA,-0.1 kcal/mol
26,GACTTCACGTGTATTG,0.22 kcal/mol

row,Sequence,relative binding free energy
1,AGAGCCACGTGGTGTG,-0.29 kcal/mol
2,ATTTGCACGTGATTTA,0.12 kcal/mol
3,GTATACACGTGGCAGG,-0.03 kcal/mol
4,AGTGTCACGTGCGTGT,-0.07 kcal/mol
5,GGAGTCACGTGTATGT,0.18 kcal/mol
6,TGGTTCACGTGTTTCA,0.15 kcal/mol
7,TCTTACACGTGATGGC,0.45 kcal/mol
8,GTGTACACGTGGCGTT,-0.08 kcal/mol
9,GTTAACACGTGGGTAA,-0.05 kcal/mol
10,TATATCACGTGCTTGT,-0.15 kcal/mol
11,TGATTCACGTGCTTGA,0.24 kcal/mol
12,GGTCGCACGTGGGTGT,-0.14 kcal/mol
13,CGTGGCACGTGACGGT,-0.05 kcal/mol
14,CGTGACACGTGATATG,0.05 kcal/mol
15,GAATTCACGTGGATGG,0.37 kcal/mol
16,GTGGCCACGTGCGGTG,-0.04 kcal/mol
17,AAAGTCACGTGGGAAG,0.08 kcal/mol
18,TTTTTCACGTGGGGTC,0.28 kcal/mol
19,GTATGCACGTGCTGTT,-0.05 kcal/mol
20,TGATTCACGTGGGCTT,0.19 kcal/mol
21,GGTGTCACGTGTTCAG,0.08 kcal/mol
22,TTTGGCACGTGGGTGT,-0.2 kcal/mol
23,TCGGGCACGTGTGGCG,-0.12 kcal/mol
24,AAAATCACGTGTTGTA,0.06 kcal/mol
25,GTAAGCACGTGGCTCG,0.07 kcal/mol
26,TGGCACACGTGGCGGG,0.03 kcal/mol

row,Sequence,relative binding free energy
1,GAATACACGTGTTTGG,0.12 kcal/mol
2,GTGTTCACGTGTATCG,0.38 kcal/mol
3,AGGTACACGTGACAGT,0.18 kcal/mol
4,CTTGGCACGTGCGGGA,-0.2 kcal/mol
5,AATATCACGTGCAGGG,0.16 kcal/mol
6,TTGAGCACGTGTCCTG,-0.07 kcal/mol
7,AGTGTCACGTGGGTTC,0.06 kcal/mol
8,TCGAACACGTGGGTAG,0.03 kcal/mol
9,ATAATCACGTGGGAAT,0.12 kcal/mol
10,GCTTTCACGTGCTGGT,0.22 kcal/mol
11,TGGAACACGTGTGGGG,0.22 kcal/mol
12,GTGGGCACGTGTGCGG,-0.11 kcal/mol
13,ATGGACACGTGTGTCG,0.14 kcal/mol
14,ACTTACACGTGGGTAT,0.06 kcal/mol
15,GGCGTCACGTGTTGCT,0 kcal/mol
16,AAGATCACGTGGTGGT,0.09 kcal/mol
17,GTCTTCACGTGTGTGA,0.32 kcal/mol
18,TAATGCACGTGGTAGA,0.01 kcal/mol
19,GCTCACACGTGGTGGT,0.11 kcal/mol
20,CGGTACACGTGAAGGG,0.13 kcal/mol
21,GTGGACACGTGGCTGA,-0.1 kcal/mol
22,GTGTTCACGTGGTTGT,0.26 kcal/mol

# Reference: the BET-seq Pho4 binding data (Le et al. 2018)
